In this assay the test system is cell line panel including leukemia, ovarian, lung, and breast carcinoma cells. As to the kind of experiment: Cytotoxicity against a cell line panel, XTT assay. The settings on record: 72 hours.

Take `CC(=O)O[C@H]1C(=O)[C@@]2(C)[C@H]([C@H](OC(=O)c3ccccc3)[C@]3(O)C[C@H](OC(=O)[C@H](Oc4cccc[n+]4C)[C@@H](NC(=O)c4ccccc4)c4ccccc4)C(C)=C1C3(C)C)[C@]1(OC(C)=O)CO[C@@H]1C[C@@H]2O` [compound 2, Taxol-2'-MPT]: the “IC50 values (range over the cell line panel)” value is listed as 10^-5 to 10^-12 M.

Regarding `CC(=O)O[C@H]1C(=O)[C@@]2(C)[C@H]([C@H](OC(=O)c3ccccc3)[C@]3(O)C[C@H](OC(=O)[C@H](O)[C@@H](NC(=O)c4ccccc4)c4ccccc4)C(C)=C1C3(C)C)[C@]1(OC(C)=O)CO[C@@H]1C[C@@H]2O` [taxol, Taxol, reference compound], the “IC50 values (range over the cell line panel)” value was 10^-5 to 10^-12 M.

For the origin of these results see patent EP0739343B1, “WATER SOLUBLE ONIUM SALT OF TAXO-DITERPENOID” (THE SCRIPPS RESEARCH INSTITUTE, priority 1994, dated 1995).
